In the supplement of paper PMC4604168 (melanoma cell lines):
The other results are listed elsewhere or left out. Single values are uncertain, as repeats are few or missing.

Key:
Assay in all cases: cell count relative to DMSO control; melanoma cells; higher = more viable cells
Settings in all cases: library dose: standard library concentration; 72 h
[1] = tested on: G361
[2] = tested on: IPC-298
[3] = tested on: IST-MEL1
[4] = tested on: LB2518-MEL
[5] = tested on: LOXIMVI
[6] = tested on: MEL-HO
[7] = tested on: MZ2-MEL
[8] = tested on: MeWo
[9] = tested on: RPMI7951
[10] = tested on: RVH-421
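Further: cells treated in 1,536-well plates, then fixed and DAPI-stained, with nuclei counted from automated high-throughput microscope images.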

Row | SMILES | cell count [1] | cell count [2] | cell count [3] | cell count [4] | cell count [5] | cell count [6] | cell count [7] | cell count [8] | cell count [9] | cell count [10]
1 | Cc1cc(Nc2cc(N3CCN(C)CC3)nc(/C=C/c3ccccc3)n2)n[nH]1 + Nc1cccc2c1CN(C1CCC(=O)NC1=O)C2=O [lenalidomide] (first compound 0.2 µM, partner dose 5 µM) | 99.4% | 93.2% | 83.4% | 99.2% | 79.7% | 96.3% | 98.3% | 96.7% | 75.7% | 93.7%
2 | Cc1cn(-c2cc(NC(=O)c3ccc(C)c(Nc4nccc(-c5cccnc5)n4)c3)cc(C(F)(F)F)c2)cn1 [nilotinib] + Cc1ccc(NC(=O)c2cccc(N(C)C)c2)cc1NC(=O)c1ccc(O)cc1 [ZM336372] (first compound 1 µM, partner dose 10 µM) | 78.3% | 92.9% | 87.5% | 95.1% | 95.3% | 93.1% | 87.5% | 99.3% | 108% | 81.7%
3 | Cn1c(=O)n(-c2ccc(C(C)(C)C#N)cc2)c2c3cc(-c4cnc5ccccc5c4)ccc3ncc21 + OCCn1cc(-c2cnc3nnn(Cc4ccc5ncccc5c4)c3n2)cn1 [PF04217903] (first compound 0.02 µM, partner dose 5 µM) | 62.2% | 87.2% | 68.2% | 82.4% | 106% | 68.5% | 102% | 72.6% | 111% | 76.5%
4 | CC(C)C[C@H](NC(=O)[C@H](Cc1ccccc1)NC(=O)c1cnccn1)B(O)O [Bortezomib] + CC(=O)c1c(C)c2cnc(Nc3ccc(N4CCNCC4)cn3)nc2n(C2CCCC2)c1=O [palbociclib] (first compound 0.005 µM, partner dose 0.2 µM) | 0.472% | 15.8% | 15% | 3.02% | 25.3% | 34.3% | 6.44% | 18.2% | 5.69% | 13.3%
5 | Cn1c(=O)n(-c2ccc(C(C)(C)C#N)cc2)c2c3cc(-c4cnc5ccccc5c4)ccc3ncc21 + Cn1cc(/C=C2\C(=O)Nc3cccnc32)c2ccccc21 [GW441756] (first compound 0.02 µM, partner dose 2 µM) | 85.6% | 86.7% | 88% | 105% | 90.7% | 80% | 86.3% | 92.4% | 92.8% | 96.1%
6 | Cn1c(=O)n(-c2ccc(C(C)(C)C#N)cc2)c2c3cc(-c4cnc5ccccc5c4)ccc3ncc21 + O=C(Nc1ccccc1)c1cc([N+](=O)[O-])ccc1Cl [GW9662] (first compound 0.02 µM, partner dose 10 µM) | 67.5% | 75.9% | 91.4% | 90% | 72.7% | 74.2% | 68.3% | 76.8% | 77% | 71.7%
7 | CC(C)C[C@H](NC(=O)[C@H](Cc1ccccc1)NC(=O)c1cnccn1)B(O)O [Bortezomib] + O=C(O)C(=O)Nc1sc2c(c1C(=O)O)CCNC2 [TCS401] (first compound 0.005 µM, partner dose 8.33333 µM) | 1.71% | 50.1% | 32.4% | 16.8% | 20.1% | 66% | 41.3% | 20.2% | 10.9% | 15.8%
8 | Cn1c(=O)n(-c2ccc(C(C)(C)C#N)cc2)c2c3cc(-c4cnc5ccccc5c4)ccc3ncc21 + CCc1ccc(CCOc2ccc(CC3SC(=O)NC3=O)cc2)nc1 [pioglitazone] (first compound 0.02 µM, partner dose 10 µM) | 70.1% | 83.1% | 84.4% | 91.6% | 90.5% | 76.6% | 81.3% | 70.4% | 72.2% | 79%
9 | Cn1c(=O)n(-c2ccc(C(C)(C)C#N)cc2)c2c3cc(-c4cnc5ccccc5c4)ccc3ncc21 + Cc1ccc(NC(=O)c2cccc(N(C)C)c2)cc1NC(=O)c1ccc(O)cc1 [ZM336372] (first compound 0.02 µM, partner dose 10 µM) | 63.8% | 95.1% | 77.6% | 80.8% | 99.9% | 79.7% | 95.4% | 61.7% | 78.7% | 85.8%
10 | Cn1c(=O)n(-c2ccc(C(C)(C)C#N)cc2)c2c3cc(-c4cnc5ccccc5c4)ccc3ncc21 + c1cc(-c2cnn3cc(-c4ccc(OCCN5CCCCC5)cc4)cnc23)ccn1 [Dorsomorphin] (first compound 0.02 µM, partner dose 2 µM) | 37.1% | 68.1% | 64.6% | 56.1% | 101% | 63.5% | 49.3% | 43.1% | 54.7% | 86.4%
11 | Cn1c(=O)n(-c2ccc(C(C)(C)C#N)cc2)c2c3cc(-c4cnc5ccccc5c4)ccc3ncc21 + C[C@@H](Oc1cc(-c2cnn(C3CCNCC3)c2)cnc1N)c1c(Cl)ccc(F)c1Cl [Crizotinib] (first compound 0.02 µM, partner dose 1 µM) | 73.3% | 72.9% | 71.9% | 70.4% | 94.1% | 74.7% | 73.9% | 75.1% | 87.1% | 74.4%
12 | Cc1cc(Nc2cc(N3CCN(C)CC3)nc(/C=C/c3ccccc3)n2)n[nH]1 + CC1(C)NC(=O)N(c2ccc([N+](=O)[O-])c(C(F)(F)F)c2)C1=O [nilutamide] (first compound 0.2 µM, partner dose 5 µM) | 76.7% | 99.1% | 101% | 70.8% | 100% | 106% | 109% | 83.2% | 48.5% | 67.3%
13 | Cn1c(=O)n(-c2ccc(C(C)(C)C#N)cc2)c2c3cc(-c4cnc5ccccc5c4)ccc3ncc21 + Cn1c(Nc2ccc(C(F)(F)F)cc2)nc2cc(Oc3ccnc(-c4ncc(C(F)(F)F)[nH]4)c3)ccc21 [CHIR265] (first compound 0.02 µM, partner dose 0.4 µM) | 6.98% | 41% | 64.1% | 18.5% | 87.4% | 49.8% | 41.8% | 44.2% | 45.4% | 40.9%
14 | Cc1cc(Nc2cc(N3CCN(C)CC3)nc(/C=C/c3ccccc3)n2)n[nH]1 + O=C(O)C(=O)Nc1sc2c(c1C(=O)O)CCNC2 [TCS401] (first compound 0.2 µM, partner dose 8.33333 µM) | 91.8% | 94% | 101% | 82.7% | 88.8% | 92.8% | 115% | 84.1% | 89.2% | 83.6%
15 | Cc1cn(-c2cc(NC(=O)c3ccc(C)c(Nc4nccc(-c5cccnc5)n4)c3)cc(C(F)(F)F)c2)cn1 [nilotinib] + C=CCNC1=C2C[C@@H](C)C[C@H](OC)[C@H](O)[C@@H](C)/C=C(\C)[C@H](OC(N)=O)[C@@H](OC)/C=C\C=C(/C)C(=O)NC(=CC1=O)C2=O [Tanespimycin] (first compound 1 µM, partner dose 0.01 µM) | 57.4% | 87.2% | 54.4% | 73.8% | 133% | 71.9% | 88.8% | 58.3% | 20% | 89.3%
16 | CC(C)C[C@H](NC(=O)[C@H](Cc1ccccc1)NC(=O)c1cnccn1)B(O)O [Bortezomib] + O=C(O)c1ccc2c(c1)nc(Nc1cccc(Cl)c1)c1ccncc12 [CX4945] (first compound 0.005 µM, partner dose 2 µM) | 1.31% | 12.1% | 7.61% | 3.7% | 33% | 31% | 3.25% | 16.1% | 4.23% | 30.3%
17 | COc1ccc(C2=N[C@@H](c3ccc(Cl)cc3)[C@@H](c3ccc(Cl)cc3)N2C(=O)N2CCNC(=O)C2)c(OC(C)C)c1 [Nutlin-3] + CC1(C)NC(=O)N(c2ccc([N+](=O)[O-])c(C(F)(F)F)c2)C1=O [nilutamide] (first compound 0.5 µM, partner dose 5 µM) | 62.3% | 93.5% | 91.3% | 58.7% | 65.6% | 90.1% | 104% | 80.8% | 79.4% | 45.5%
